Data from PubChem BioAssay (NCATS).
Several values for one entry are separate records, joined by “and”; a condition that tells them apart may be missing. Identical values can stand only once. Inconclusive means that the source gave no clear call. Such entries were picked first, then a sample of the others. Potencies beside an inconclusive call are fits to weak or partial responses and may not hold up. Activity calls are given as the source filed them. Calls follow the shape of the dose curve; as a rule, active = well fitted curve in the direction sought with a large enough effect; inconclusive = small, poorly fitted or top-dose-only effect, or another doubt; inactive = no such curve, though single readings can be large; an effect the other way counts as inactive or inconclusive.

Key:
[1] = Viability qHTS for spleen associated tyrosine kinase inhibitor (SYKi) drug resistant MV4-11 cells (AID 1963824); also: nearly all actives have a fitted effect of over 35% in size
How it was run: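 SYK-inhibitor-resistant MV4-11 AML cells were seeded at 500 per well onto compound and cultured 72 hours (37 °C, 5% CO2). CellTiter-Glo was then added, and after 10 min at room temperature, luminescence gave viability.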

[2] = Cellular viability qHTS for adrenocortical cancer (ACC) cell line SW-13 (AID 1963989); settings: SW-13 ACC cells viability, CellTiter-Glo, 48 h; activity (max response): stronger effect = lower value; also: nearly all actives have a fitted effect of over 65% in size;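 as to activity (max response): cells grown in serum-free medium with ITS supplement; % is scaled to controls: 0 for no effect and ±100 for the full control effect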
How it was run: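 Viability was read as CellTiter-Glo luminescence after 48 h compound treatment (up to 46 uM final) of SW-13 cells grown serum-free; titration curves were fit with a four-parameter logistic model to give IC50 and efficacy.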

[3] = Cellular viability qHTS for adrenocortical cancer (ACC) cell line NCI-H295R (AID 1963990); settings: CellTiter-Glo ATP luminescence, 48 h; activity change, negative = viability loss: at 46.1 µM (top of the series); also: nearly all actives have a fitted effect of over 60% in size;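 as to activity change, negative = viability loss: 0% = DMSO only wells and -100% = full killing with cytotoxic reference compound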
How it was run: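 CellTiter-Glo ATP luminescence, read 48 h after compound addition, measured viability of NCI-H295R adrenocortical cells grown serum-free with ITS. Final concentrations spanned up to 46 uM. Data normalized to DMSO and doxorubicin, fitted for IC50 and maximal response.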

[4] = Quantitative highthroughput screen to assess conditional lethalithy of NOMO1 cells grown in RPMI1640 with untreated serum (RPMI+s) (AID 1963876); settings: NOMO1 AML cells in RPMI+serum, CellTiter-Glo viability, 48 h; viability: at 45.8 µM (top of the series); also: nearly all actives have a fitted effect of over 35% in size
How it was run: (§1)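 Each medium arm—HPLM with 10% dialyzed FBS, or RPMI1640 with 5 mM glucose and 10% untreated or dialyzed FBS—was screened against an 11-point, 3-fold compound titration for 48 h at 37 °C, with CellTiter-Glo luminescence as endpoint.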

[5] = Quantitative highthroughput screen to assess conditional lethalithy of NOMO1 cells grown in RPMI1640 with dialyzed fetal bovine serum (RPMI+ds) (AID 1963877); also: nearly all actives have a fitted effect of over 30% in size
How it was run: as §1

[6] = Quantitative highthroughput screen to assess conditional lethalithy of NOMO1 cells grown in Human Plasma-Like Medium with dialyzed fetal bovine serum (HPLM+ds) (AID 1963878); settings: NOMO1 AML cells in HPLM+ds, CellTiter-Glo viability, 48 h; viability: at 45.8 µM (top of the series); also: nearly all actives have a fitted effect of over 35% in size
How it was run: as §1

[7] = Quantitative highthroughput screen to assess conditional lethalithy of P12 Ichikawa cells grown in Human Plasma-Like Medium with dialyzed fetal bovine serum (HPLM+ds) (AID 1963879); settings: Potency: viability; also: nearly all actives have a fitted effect of over 35% in size
How it was run: as §1

[8] = Quantitative highthroughput screen to assess conditional lethalithy of P12 Ichikawa cells grown in RPMI1640 with dialyzed fetal bovine serum (RPMI+ds) (AID 1963880); settings: Potency: P12-Ichikawa viability; also: nearly all actives have a fitted effect of over 35% in size
How it was run: as §1

[9] = Quantitative highthroughput screen to assess conditional lethalithy of P12 Ichikawa cells grown in RPMI1640 with untreated serum (RPMI+s) (AID 1963881); settings: Potency: viability; also: nearly all actives have a fitted effect of over 35% in size
How it was run: as §1

[10] = Quantitative highthroughput screen to assess conditional lethalithy of SEM cells grown in Human Plasma-Like Medium with dialyzed fetal bovine serum (HPLM+ds) (AID 1963882); also: nearly all actives have a fitted effect of over 35% in size
How it was run: as §1

[11] = Quantitative highthroughput screen to assess conditional lethalithy of SEM cells grown in RPMI1640 with unreated serum (RPMI+s) (AID 1963883); settings: SEM B-ALL cells, CellTiter-Glo viability, 48 h; viability: at 45.8 µM (top of the series); also: nearly all actives have a fitted effect of over 35% in size
How it was run: as §1

[12] = Quantitative highthroughput screen to assess conditional lethalithy of SEM cells grown in RPMI1640 with dialyzed fetal bovine serum (RPMI+ds) (AID 1963884); settings: SEM B-ALL cells, RPMI+dialyzed FBS, CellTiter-Glo viability, 48 h; viability: at 45.8 µM (top of the series); also: nearly all actives have a fitted effect of over 35% in size
How it was run: as §1
Potency is read from the fitted curve at half-maximal effect; tags tell the direction and shape of the fitted curve.

For `Nc1nc(Cl)nc2c1ncn2[C@@H]1O[C@H](CO)[C@@H](O)[C@@H]1F`, the Potency [1] was active: 188 nM and active: 332 nM, the Potency [2] was inconclusive: 259 nM [cytotoxic, full curve] and inconclusive: 1.26 µM [cytotoxic, full curve] and the Potency [3] was inconclusive: 130 nM [cytotoxic, full curve] and inconclusive: 891 nM [cytotoxic, full curve].

With `CNCCn1c(=O)c2cc(OC)c(OC)cc2c2cnc3cc4c(cc3c21)OCO4` the Potency [1] was active: 0.0121 µM and the Potency [3] was active: 0.596 µM.

For `CC1(C)O[C@@H]2C[C@H]3[C@@H]4C[C@H](F)C5=CC(=O)C=C[C@]5(C)[C@H]4[C@@H](O)C[C@]3(C)[C@]2(C(=O)CO)O1`, the Potency [1] was inconclusive: 0.841 µM [cytotoxic, partial curve, poor fit] and the Potency [3] was “inactive”.

In the case of `CC1(C)O[C@@H]2C[C@H]3[C@@H]4C[C@H](F)C5=CC(=O)CC[C@]5(C)[C@H]4[C@@H](O)C[C@]3(C)[C@]2(C(=O)CO)O1`, the Potency [1] was inconclusive: 11.9 µM [cytotoxic, partial curve, poor fit] and the Potency [3] was inconclusive: 32.6 µM [cytotoxic, single point].

With `O=C1N=C(O)CN1/N=C/c1ccc(-c2ccc([N+](=O)[O-])cc2)o1` the Potency [1] was “inactive” and the Potency [3] was inconclusive: 18.4 µM [cytotoxic, single point].

For `O=C(O)CN1C(=O)c2cccc3cccc(c23)C1=O`, the Potency [1] was inconclusive: 0.0168 µM [cytotoxic, full curve, poor fit] and the Potency [3] was “inactive”.

In the case of `O=C(O)CCn1c2c(c3ccccc31)C[C@H](NS(=O)(=O)c1ccc(F)cc1)CC2`, the Potency [1] was inconclusive: 33.5 µM [cytotoxic, single point] and inconclusive: 26.3 µM [cytotoxic, partial curve, poor fit] and the Potency [3] was “inactive”.

With `CCN(CCCOc1ccc2c(Nc3cc(CC(=O)Nc4cccc(F)c4)[nH]n3)ncnc2c1)CCOP(=O)(O)O` the Potency [1] was active: 58 nM and active: 372 nM, the activity (max response) [2] was inactive: -30.5% and the Potency [3] was inconclusive: 1 µM [cytotoxic, partial curve].

With `O=C(O)[C@@H]1[C@H]2C[C@H]3c4[nH]c5ccccc5c4CCN3C[C@@H]2CC[C@@H]1O` the Potency [1] was active: 5.96 µM and the Potency [3] was inconclusive: 29.1 µM [cytotoxic, single point].

For `CCC(C)C(N)C1=NC(C(=O)N[C@@H](CC(C)C)C(=O)N[C@H](CCC(=O)O)C(=O)N[C@H](C(=O)N[C@H]2CCCCNC(=O)[C@H](CC(N)=O)NC(=O)[C@@H](CC(=O)O)NC(=O)[C@H](Cc3cnc[nH]3)NC(=O)[C@@H](Cc3ccccc3)NC(=O)[C@H]([C@@H](C)CC)NC(=O)[C@@H](CCCN)NC2=O)[C@@H](C)CC)CS1` (some centres undefined), the Potency [1] was “inactive” and the Potency [3] was “inactive”.

With `COc1ccc(CCN(C)CCCC(C#N)(c2cc(OC)c(OC)c(OC)c2)C(C)C)cc1OC` (centres undefined) the Potency [1] was inconclusive: 26.6 µM [cytotoxic, single point] and the Potency [3] was inconclusive: 1.46 µM [cytotoxic, partial curve, poor fit].

For `COc1ccc2[nH]c3c(c2c1)CCN[C@]31CS[C@@H]2c3c(OC(C)=O)c(C)c4c(c3[C@H](COC1=O)N1[C@@H]2[C@H]2c3c(cc(C)c(OC)c3O)C[C@@H]([C@@H]1O)N2C)OCO4`, the Potency [1] was active: 0.0011 µM, the Potency [2] was inconclusive: 3 nM [cytotoxic, full curve, poor fit] and the Potency [3] was inconclusive: 0.0084 µM [cytotoxic, full curve, poor fit].

For `Nc1ccc(N)c([N+](=O)[O-])c1`, the Potency [1] was inconclusive: 21.7 µM [cytotoxic, partial curve] and the Potency [3] was inconclusive: 31.6 µM [cytotoxic, single point].

In the case of `O=C1CN(/N=C/c2ccc([N+](=O)[O-])o2)C(=O)N1`, the Potency [1] was inconclusive: 23.7 µM [cytotoxic, single point] and the Potency [3] was active: 18.4 µM.

For `CCc1cc(Cl)c(OC)c(C(=O)NC[C@@H]2CCCN2CC)c1O`, the Potency [1] was inconclusive: 5.31 µM [cytotoxic, single point] and the Potency [3] was “inactive”.

For `O=C(CCl)Nc1cccc(NC2=NS(=O)(=O)c3ccccc32)c1`, the Potency [1] was active: 2.63 µM and the Potency [3] was active: 3.16 µM.

For `CCN(CC)C(C)CN1c2ccccc2Sc2ccccc21` (centres undefined), the Potency [1] was “inactive” and the Potency [3] was inconclusive: 3.66 µM [cytotoxic, full curve].

With `CCCCNc1ncc(-c2ccc(CN3CCOCC3)cn2)c(NC2CCC(O)CC2)n1` (centres undefined) the Potency [1] was inconclusive: 0.0632 µM [cytotoxic, full curve] and the Potency [3] was “inactive”.

In the case of `Nc1nc(-c2ccccc2)c(Br)c(=O)[nH]1`, the Potency [1] was “inactive” and the Potency [3] was “inactive”.

With `CCN(CC)CCNC(C(=O)OCCC(C)C)c1ccccc1` (centres undefined) the Potency [1] was “inactive” and the Potency [3] was “inactive”.

In the case of `N#C/C(=C(/N)Sc1ccc(N)cc1)c1ccccc1C(F)(F)F`, the Potency [1] was active: 7.42 µM and the Potency [3] was “inactive”.

With `CCNC(=O)[C@@H]1CCCN1C(=O)[C@H](CCCN=C(N)N)NC(=O)[C@H](CC(C)C)NC(=O)CNC(=O)[C@H](Cc1ccc(O)cc1)NC(=O)[C@H](CO)NC(=O)[C@H](Cc1c[nH]c2ccccc12)NC(=O)[C@H](Cc1cnc[nH]1)NC(=O)[C@@H]1CCC(=O)N1` the Potency [1] was “inactive” and the Potency [3] was inconclusive: 1.84 µM [cytotoxic, partial curve, poor fit].

For `O=C(O)CN(CCN(CC(=O)O)CC(=O)O)CCN(CC(=O)O)CC(=O)O`, the Potency [1] was inconclusive: 3.26 µM [cytotoxic, partial curve, poor fit] and the Potency [3] was inconclusive: 0.317 µM [cytotoxic, full curve, poor fit].

With `COc1ccc2c(c1)c1c3n2CCN(C)C3=NCC1` the Potency [1] was “inactive” and the Potency [3] was “inactive”.

With `CCOC(=N)c1nc2ccc3ncnc(Nc4cc(F)c(F)cc4Cl)c3c2s1` the Potency [1] was active: 7.42 µM and the Potency [3] was inconclusive: 35.5 µM [cytotoxic, single point].

For `CC(C)=CCC/C(C)=C/CC/C(C)=C/CSc1ccccc1C(=O)O`, the Potency [1] was inconclusive: 20.6 µM [cytotoxic, single point] and inconclusive: 14.8 µM [cytotoxic, partial curve] and the Potency [3] was inconclusive: 28.2 µM [cytotoxic, partial curve, poor fit].

In the case of `C[C@@H](Oc1ccc2[nH]nc(/C=C/c3cnn(CCO)c3)c2c1)c1c(Cl)cncc1Cl`, the Potency [1] was active: 0.0525 µM and the Potency [3] was active: 5.01 µM.

For `CN[C@H]1CCc2cc(OC)c(OC)c(OC)c2-c2ccc(OC)c(=O)cc21`, the Potency [4] was active: 0.0093 µM and the Potency [5] was inconclusive: 0.0118 µM [cytotoxic, full curve].

For `COc1c(C)c2c(c(O)c1CC=C(C)CCC(=O)OCCN1CCOCC1)C(=O)OC2`, the Potency [4] was inconclusive: 4.69 µM [cytotoxic, full curve], the Potency [5] was inconclusive: 4.18 µM [cytotoxic, full curve] and the Potency [6] was inconclusive: 4.18 µM [cytotoxic, full curve]. The Potency [7] was inconclusive: 4.18 µM [cytotoxic, full curve], the Potency [8] was inconclusive: 4.18 µM [cytotoxic, full curve] and the Potency [9] was inconclusive: 3.72 µM [cytotoxic, full curve]. The Potency [10] was inconclusive: 5.26 µM [cytotoxic, full curve], the Potency [11] was inconclusive: 4.69 µM [cytotoxic, full curve] and the Potency [12] was inconclusive: 10.5 µM [cytotoxic, partial curve].

In the case of `CC(C)c1c(C(=O)Nc2ccccc2)c(-c2ccccc2)c(-c2ccc(F)cc2)n1CC[C@H](O)C[C@@H](O)CC(=O)O`, the Potency [4] was inconclusive: 26.4 µM [cytotoxic, single point], the Potency [5] was active: 16.6 µM and the Potency [6] was active: 18.7 µM. The Potency [7] was inconclusive: 26.4 µM [cytotoxic, single point], the Potency [8] was inconclusive: 20.9 µM [cytotoxic, partial curve] and the Potency [9] was inconclusive: 18.7 µM [cytotoxic, partial curve]. For the same compound, the Potency [11] was inconclusive: 16.6 µM [cytotoxic, partial curve, poor fit] and the Potency [12] was inconclusive: 16.6 µM [cytotoxic, partial curve, poor fit].

In the case of `C[C@@H](Oc1cc(-c2cnn(C3CCNCC3)c2)cnc1N)c1c(Cl)ccc(F)c1Cl`, the Potency [4] was inconclusive: 10.5 µM [cytotoxic, partial curve], the Potency [5] was inconclusive: 7.43 µM [cytotoxic, partial curve] and the Potency [6] was inconclusive: 11.8 µM [cytotoxic, partial curve]. For the same compound, the Potency [7] was inconclusive: 20.9 µM [cytotoxic, partial curve], the Potency [8] was active: 18.7 µM and the Potency [9] was active: 16.6 µM. For the same compound, the Potency [10] was inconclusive: 4.69 µM [cytotoxic, full curve], the Potency [11] was active: 9.35 µM and the Potency [12] was inconclusive: 6.62 µM [cytotoxic, full curve].

With `CC(C)(O)CNc1ncc(-c2ccnc(Nc3ccncc3)n2)c(CC2CC2)n1` the Potency [1] was active: 1.18 µM and the Potency [3] was inconclusive: 15.8 µM [cytotoxic, partial curve].

For `CN(C)CCOc1ccc(C(=C(CCCl)c2ccccc2)c2ccccc2)cc1`, the Potency [4] was inconclusive: 11.8 µM [cytotoxic, partial curve], the Potency [5] was inconclusive: 14.8 µM [cytotoxic, partial curve] and the Potency [6] was inconclusive: 14.8 µM [cytotoxic, partial curve]. For the same compound, the Potency [7] was inconclusive: 5.9 µM [cytotoxic, partial curve], the Potency [8] was inconclusive: 2.09 µM [cytotoxic, full curve] and the Potency [9] was inconclusive: 4.69 µM [cytotoxic, partial curve]. For the same compound, the Potency [11] was active: 3.32 µM.
